Reference: PubChem BioAssay AID485344 (National Center for Advancing Translational Sciences (NCATS), 2010)
The campaign covered roughly 340,000 compounds. About 6,900 (2%) were called active. Rule as the data show it: active = inhibition above about 30%; inactive = below that, where a call was filed. The list shows a part of the results, in another mix than the full data. Entries without a call were filed so in the source.
Also: 0% is about no effect.

What follows are molecules tested against D(2) dopamine receptor (Homo sapiens) (UniProt P14416) (assay: HTS Assay for Allosteric Antagonists of the Human D2 Dopamine Receptor: Primary Screen for Antagonists). Settings: HEK293 TREx D2 cells, calcium flux, dopamine EC80; at 10 µM; stronger effect = higher value.
Sequence of UniProt P14416 (P14416 whole entry, looked up): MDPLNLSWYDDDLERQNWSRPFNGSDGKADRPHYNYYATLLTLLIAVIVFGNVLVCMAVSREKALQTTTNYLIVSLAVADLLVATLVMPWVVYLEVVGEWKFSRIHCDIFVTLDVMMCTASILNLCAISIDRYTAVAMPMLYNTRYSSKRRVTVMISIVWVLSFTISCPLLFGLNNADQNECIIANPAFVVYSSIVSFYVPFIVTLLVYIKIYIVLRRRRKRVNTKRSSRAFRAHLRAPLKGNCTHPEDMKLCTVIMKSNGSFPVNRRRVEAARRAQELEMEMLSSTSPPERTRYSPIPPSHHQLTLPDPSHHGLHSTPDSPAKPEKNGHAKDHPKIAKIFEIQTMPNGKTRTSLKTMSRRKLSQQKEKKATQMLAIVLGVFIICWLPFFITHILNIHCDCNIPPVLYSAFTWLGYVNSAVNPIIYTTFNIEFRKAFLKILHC
Outline: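 Tetracycline-induced HEK293 TREx cells expressing D2 receptor forced-coupled to calcium signalling, loaded with no-wash calcium dye. Compounds added and calcium flux read 180 s, then dopamine added at EC80 and read a further 180 s.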
With CCC1CN(C(=O)NCc2cccc(OC)c2)c2ccccc2O1 (centres undefined) the inhibition was 10.9%. COc1ccc(-c2[nH]c(-c3ccccc3)nc2SCC(=O)NC2CCCC2)cc1 gave an inhibition of 2.44%. With COc1ccc(CCNC(=O)c2cc3c(=O)n(C)c4cc(Cl)ccc4c3s2)cc1OC the inhibition was -9.4%. Molecule COc1ccc(-c2cc(NCc3ccc(C)cc3)n3cnnc3n2)cc1 has an inhibition of 11%. In the case of CCN1C(=O)c2ccccc2Sc2ccc(NC(=O)Nc3ccc(Br)c(C)c3)cc21, the inhibition is reported as -28.2%. Work on O=S1(=O)c2ccccc2N(Cc2ccccc2Cl)c2ccccc21 yielded an inhibition of -3.21%. For COc1cccc(NC(=O)C(=O)NCCc2sc(-c3cccc(C)c3)nc2C)c1, the inhibition was 5.82%. COc1ccc(Nc2nc(N)nc(CSc3nc4ccccc4s3)n2)cc1 was tested, and the inhibition was 4.15%. For Cc1cc(C)c(Nc2nn3c(=O)c4cc5c(cc4nc3s2)OCO5)c(C)c1, the inhibition was 18.3%. With CNC(=O)c1cc2c(n(-c3ccc(C)cc3)c1=O)CC(C)(C)CC2=O the inhibition was 1.95%. Molecule O=C(Nc1ccc2nc(SCC(=O)N3CCOCC3)sc2c1)c1ccc(F)cc1 has an inhibition of -6.16%. COc1cc(OC)cc(-c2nc3nc(C)c(CCC(=O)Nc4ccc(Cl)cc4)c(C)n3n2)c1 showed an inhibition of 15.8%. COc1cccc(C(=O)Nc2ccc3oc(-c4ccc5ccccc5c4)nc3c2)c1 gave an inhibition of 0.916%. O=C(Nc1ccccc1)/C(=C\c1ccc2c(c1)OCO2)NC(=O)c1ccco1 was tested, and the inhibition was active: 30%. O=C(Nc1ccccc1F)C(Cc1ccccc1)n1cccc1 (centres undefined) was tested, and the inhibition was -14.5%. In the case of COCCCNc1nc2c(c(=O)n(C)c(=O)n2C)n1Cc1cccc(OC)c1, the inhibition is reported as active: 39.7%. In the case of COc1ccc(-c2c3c(=O)n(C)c(=O)n(C)c3c3c(-c4ccccc4)nc4ccccc4n23)cc1, the inhibition is reported as 0.188%. Molecule COc1ccc(Cn2c(C(=O)O)c(CNCc3cccs3)c3ccc(C)cc32)cc1 has an inhibition of -4.63%. With Cc1ccc(S(=O)(=O)N(C)C)cc1NC(=S)Nc1ccc2cn[nH]c2c1 the inhibition was active: 43%. In the case of CCC(CC)C(=O)NC12CC3CC(CC(C3)C1)C2, the inhibition is reported as active: 32.5%. CN1CCN(C(c2ccc(F)cc2)c2sc3nc(-c4ccco4)nn3c2O)CC1 (centres undefined) gave an inhibition of -9.39%. CCn1c(C)c(C)c2cc(C(=O)NCCc3cc(OC)c(OC)c(OC)c3)ccc21 gave an inhibition of 2.91%. With CCc1ccc(S(=O)(=O)c2nnn3c2nc(NCc2cccs2)c2sccc23)cc1 the inhibition was -19%. CCOC(=O)Cn1c(=O)oc2cc(S(=O)(=O)Nc3cc(OC)cc(OC)c3)ccc21 showed an inhibition of 16.9%. Molecule COc1ccc(N2CCN(C(=O)C3CCN(S(=O)(=O)c4cnc[nH]4)CC3)CC2)cc1 has an inhibition of -18.5%. Work on COc1ccccc1C(=O)NCc1ccc2c(c1)CCN2C(=O)c1cccc(C)c1 yielded an inhibition of -3.09%. CCc1ccccc1Nc1nn2c(=O)c3ccc(C(=O)NCc4cccs4)cc3nc2s1 was tested, and the inhibition was 14.5%. O=C(CN1CCN(c2ccccn2)CC1)Nc1ccccc1F was tested, and the inhibition was active: 56.9%. COc1cc(S(=O)(=O)N2CCCCC2)ccc1NC(=O)c1ccncc1 was tested, and the inhibition was active: 37.4%. CN1C/C(=C/c2ccsc2)C(=O)/C(=C/c2ccsc2)C1 was tested, and the inhibition was active: 44.4%. COc1ccc(CNS(=O)(=O)c2cc(C(=O)Nc3cc(Cl)cc(Cl)c3)ccc2F)cc1 gave an inhibition of -22.6%. CCc1ccc(CNC(=O)C(CC)n2ccc3cc(S(=O)(=O)N4CCCCC4)ccc32)cc1 (centres undefined) showed an inhibition of 8.2%. With CCOC(=O)C1CCCN(C(=O)C2CCN(c3nnc(C)c4c(C)n(-c5ccccc5)nc34)CC2)C1 (centres undefined) the inhibition was 1.7%. COc1ccccc1C(=O)NCc1ccc2c(c1)CCN2C(=O)c1ccncc1 was tested, and the inhibition was 3.45%. COc1cccc(/C=C/C(=O)OCC(=O)c2ccc3c(c2)NC(=O)CO3)c1 was tested, and the inhibition was active: 42.1%. Cc1cc(NC(=O)CSc2nc3c([nH]c4ccccc43)c(=O)n2-c2cccc(Cl)c2)no1 was tested, and the inhibition was 5.12%. In the case of COc1ccc(N2CCN(C(=O)C34CCC(C)(C(=O)C3)C4(C)C)CC2)cc1 (centres undefined), the inhibition is reported as active: 36.8%. Molecule CCOc1ccccc1NC(=O)C(Cc1ccccc1)NS(=O)(=O)c1ccc(Br)s1 (centres undefined) has an inhibition of -6.22%. With COc1cc(C)cc2oc(=O)c(CC(=O)N3CCN(C(=O)C4COc5ccccc5O4)CC3)c(C)c12 (centres undefined) the inhibition was active: 37.1%. In the case of COc1cc(NC(=O)CN(C)S(=O)(=O)c2ccc3[nH]c4c(c3c2)CCCC4)cc(OC)c1OC, the inhibition is reported as 0.19%. Work on COc1ccc(OC2CCN(S(=O)(=O)c3ccc(OC)cc3)CC2)cc1 yielded an inhibition of 16%. CCOC(=O)N1CCc2c(sc(NCc3ccc(OCC)cc3)c2C(=O)Nc2ccc(OC)cc2OC)C1 gave an inhibition of -8.59%. For Cc1ccc(Nc2c([N+](=O)[O-])c(=O)oc3ccccc23)cc1, the inhibition was active: 31.5%. O=C(NC1CCCC1)c1ccc(CSc2nc3ccncc3n2Cc2ccccc2F)cc1 was tested, and the inhibition was -6.22%. CC1=C(C(=O)Nc2cccnc2)C(c2ccc(F)cc2)n2nc(SCc3ccccc3F)nc2N1 (centres undefined) showed an inhibition of 2.21%. In the case of Cc1cccc(S(=O)Cc2ccc(C(=O)NC3CCN(Cc4ccccc4)CC3)o2)c1 (centres undefined), the inhibition is reported as active: 44.4%. CCN(C(=O)c1cc2c(Cl)nc3ccccc3c2s1)c1cccc(Cl)c1 was tested, and the inhibition was -10.3%. CCOC(=O)c1cnc2c(C)c(Cl)ccc2c1Nc1ccc(C)cc1C gave an inhibition of 10.3%. COc1ccc(C(CNC(=O)c2cccc(S(=O)(=O)N3CCCC(C)C3)c2)N(C)C)cc1 (centres undefined) was tested, and the inhibition was active: 76.4%. For CN1c2cc(Cl)ccc2-c2nc(SCC(=O)Nc3ccc(F)cc3F)ncc2S1(=O)=O, the inhibition was -0.516%. CCOc1ccccc1/C=N/NC(=O)C[n+]1ccccc1 was tested, and the inhibition was active: 33.2%. For Cc1ccc(NC(=O)c2sc(-n3nc(C)c(CCC(C)C)c3C)nc2C)cc1C, the inhibition was 18.9%. For Cc1nc2ccn(Cc3cccs3)c(=O)c2cc1C(=O)N1CCN(c2ccc(F)cc2)CC1, the inhibition was -0.713%. COc1ccc(-c2cc3c(=O)n(CC(=O)NCCCN4CCC(Cc5ccccc5)CC4)ncn3n2)cc1 was tested, and the inhibition was active: 89.1%. O=C(CN(c1ccc(Cl)c(C(F)(F)F)c1)S(=O)(=O)c1ccccc1)N1CCc2ccccc2C1 gave an inhibition of 2.62%. In the case of COc1ccccc1CNc1cc(-c2ccccc2)nc2nncn12, the inhibition is reported as -5.92%. Work on CCOc1cccc(C(=O)Nc2c(C(=O)c3ccc(OC)cc3)oc3ccccc23)c1 yielded an inhibition of -11.1%. CCCCOC(=O)c1ccc(NC(=O)c2cc(-c3ccccc3)on2)cc1 was tested, and the inhibition was 11.4%. COc1ccc(N2Cc3cccc(C(=O)Nc4ccc(C(C)C)cc4)c3C2=O)cc1 gave an inhibition of 0.174%. For CCc1ccccc1N(C)C(=O)C1CCCN(c2ncnc3onc(-c4ccc(F)cc4)c23)C1 (centres undefined), the inhibition was -2.61%. For CCCN1CCc2nc(N3CCN(CC)CC3)ncc2C1, the inhibition was 3.22%. Cc1ccc(OCCn2c(CNc3cccc(C)c3)nc3ccccc32)cc1 was tested, and the inhibition was -6.22%. For COc1ccc2c(c1)Cc1sc(NC(=O)c3ccccc3Br)nc1-2, the inhibition was 3.69%. For CCn1c(SCC(=O)Nc2ccc(C)cc2Br)nnc1-c1nonc1NC(C)=O, the inhibition was 4.56%. CCc1ccc(NC(=O)c2ccc3c(c2)N(Cc2ccc(C)cc2)CCS3)cc1 showed an inhibition of -14.1%. For O=C(CC1N=C2c3ccccc3N=C(SCC(=O)Nc3cccc(Cl)c3)N2C1=O)NCc1cccs1 (centres undefined), the inhibition was -11%. Molecule COc1ccc(CCNC(=O)Cn2cc(S(=O)(=O)Cc3ccccc3F)c3ccccc32)cc1OC has an inhibition of 2.75%. CC1CCN(S(=O)(=O)c2ccc(N3CCCCS3(=O)=O)cc2)CC1 showed an inhibition of 4.18%. For Cc1cccc(Cn2c(=O)n(CCC(=O)NCc3ccc4c(c3)OCO4)c(=O)c3sccc32)c1, the inhibition was -24.7%. Cc1ccc2c(=O)cc(C(=O)Nc3nnc(CC(C)C)s3)oc2c1C gave an inhibition of -2.7%. With COc1cccc(CNC(=O)CSc2nc(=O)[nH]c3c2CCCC3)c1 the inhibition was -1.4%. Oc1c(C(c2ccc(Cl)cc2Cl)N2CCOCC2)sc2nc(-c3ccco3)nn12 (centres undefined) gave an inhibition of 14.2%. O=C(NCc1ccc(F)cc1)c1ccc(CS(=O)(=O)c2ccc(Cl)cc2)o1 gave an inhibition of -6.59%. Work on CCc1ccc(NC(=O)Cn2c(=O)c(-c3ccccc3NC(C)=O)nc3ccccc32)cc1 yielded an inhibition of -24.7%. In the case of CCOc1ccc(S(=O)(=O)N(CC(=O)NCCSCc2ccc(C)cc2)c2ccccc2)cc1, the inhibition is reported as -3.28%. In the case of C[C@@H]1NC(=O)[C@H](CCCN=C(N)N)NC(=O)c2cc([N+](=O)[O-])cc(I)c2OCC[C@@H](C(N)=O)NC1=O, the inhibition is reported as active: 31.9%. CCn1ccc2cc(S(=O)(=O)N3CCCN(C(=O)Nc4ccccc4C(F)(F)F)CC3)ccc21 was tested, and the inhibition was 21.7%. For Cc1cccc(N2C(=O)CSC23C(=O)N(Cc2cccc(F)c2)c2ccccc23)c1 (centres undefined), the inhibition was -15.5%. In the case of CN1CCN(C(CNC(=O)C(=O)Nc2ccccc2)c2ccc3c(c2)OCO3)CC1 (centres undefined), the inhibition is reported as 15.7%. CCOC(=O)c1c(C)n(-c2ccccc2)c2ccc(OC(=O)c3ccccc3)cc12 showed an inhibition of -0.96%. Molecule Cc1cccc(-c2noc(CN(C(=O)COc3ccc(C(C)C)cc3)C(C)C)n2)c1 has an inhibition of -14.6%. With Cc1ccc(C)c(CSc2nc3ncccc3[nH]2)c1 the inhibition was 7.27%. COc1ccc(C2=NS(=O)(=O)N(C)C(C(=O)Nc3cc(C)ccc3O)=C2)cc1OC was tested, and the inhibition was -1.25%. For Cc1nc(N2C(=O)c3oc4ccccc4c(=O)c3C2c2ccccc2F)sc1C (centres undefined), the inhibition was -5.94%. Molecule COc1cccc(N2CCN(S(=O)(=O)c3cc(Br)cc4c3N(C(=O)C3CC3)CC4)CC2)c1 has an inhibition of 4.88%. COc1ccc(-c2cc(C(=O)NCc3cc(OC)c(OC)c(OC)c3)[nH]n2)cc1 showed an inhibition of -16.4%. CCc1ccc(S(=O)(=O)c2nnn3c2nc(N2CCC(C)CC2)c2cc(Cl)ccc23)cc1 was tested, and the inhibition was -6.88%. Cc1cccc(OCC(=O)Nc2c(C)ccc3nsnc23)c1C was tested, and the inhibition was -0.87%. Cc1ccc(Cl)c2c1N[C@@H](c1ccc(C(=O)O)cc1)[C@H]1CC=C[C@@H]21 gave an inhibition of -18.3%. Cc1ccc(C)c(NC(=O)CCN2C(=O)c3ccccc3Sc3ncccc32)c1 gave an inhibition of 20.1%. Work on O=C(CSc1ncc(S(=O)(=O)c2ccc(Br)cc2)c(=O)[nH]1)NCc1ccc(Cl)cc1 yielded an inhibition of 9.04%. CCOc1ccc(-c2nc(CSCC(=O)N3CCN(c4cccc(C(F)(F)F)c4)CC3)c(C)o2)cc1 was tested, and the inhibition was 3.37%. Cc1c(CC(=O)NCCc2ccccc2F)c(=O)oc2c(C)c3occ(C(C)(C)C)c3cc12 showed an inhibition of 13%. Cc1csc(NC(=O)C2CC(=O)N(c3ccc(C)c(C)c3)C2)n1 (centres undefined) was tested, and the inhibition was active: 50.8%.
